# Test results from PMC4336329 (PLoS ONE, 2015).
# About 14,000 (4.5%) of roughly 310,000 compounds showed an effect of 50% or more. The effect is printed as a negative number. The list shows a part of the results.
# Molecular target: human ether-à-go-go-related gene (hERG) potassium channel (human, UniProt Q12809)
# Assay: primary screen, population patch clamp on CHO cells stably expressing hERG
# 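Further: peak tail current of the secondary pulse compared with the same well before compound.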
# Chain of human ether-à-go-go-related gene (hERG) potassium channel (Q12809 whole entry, looked up): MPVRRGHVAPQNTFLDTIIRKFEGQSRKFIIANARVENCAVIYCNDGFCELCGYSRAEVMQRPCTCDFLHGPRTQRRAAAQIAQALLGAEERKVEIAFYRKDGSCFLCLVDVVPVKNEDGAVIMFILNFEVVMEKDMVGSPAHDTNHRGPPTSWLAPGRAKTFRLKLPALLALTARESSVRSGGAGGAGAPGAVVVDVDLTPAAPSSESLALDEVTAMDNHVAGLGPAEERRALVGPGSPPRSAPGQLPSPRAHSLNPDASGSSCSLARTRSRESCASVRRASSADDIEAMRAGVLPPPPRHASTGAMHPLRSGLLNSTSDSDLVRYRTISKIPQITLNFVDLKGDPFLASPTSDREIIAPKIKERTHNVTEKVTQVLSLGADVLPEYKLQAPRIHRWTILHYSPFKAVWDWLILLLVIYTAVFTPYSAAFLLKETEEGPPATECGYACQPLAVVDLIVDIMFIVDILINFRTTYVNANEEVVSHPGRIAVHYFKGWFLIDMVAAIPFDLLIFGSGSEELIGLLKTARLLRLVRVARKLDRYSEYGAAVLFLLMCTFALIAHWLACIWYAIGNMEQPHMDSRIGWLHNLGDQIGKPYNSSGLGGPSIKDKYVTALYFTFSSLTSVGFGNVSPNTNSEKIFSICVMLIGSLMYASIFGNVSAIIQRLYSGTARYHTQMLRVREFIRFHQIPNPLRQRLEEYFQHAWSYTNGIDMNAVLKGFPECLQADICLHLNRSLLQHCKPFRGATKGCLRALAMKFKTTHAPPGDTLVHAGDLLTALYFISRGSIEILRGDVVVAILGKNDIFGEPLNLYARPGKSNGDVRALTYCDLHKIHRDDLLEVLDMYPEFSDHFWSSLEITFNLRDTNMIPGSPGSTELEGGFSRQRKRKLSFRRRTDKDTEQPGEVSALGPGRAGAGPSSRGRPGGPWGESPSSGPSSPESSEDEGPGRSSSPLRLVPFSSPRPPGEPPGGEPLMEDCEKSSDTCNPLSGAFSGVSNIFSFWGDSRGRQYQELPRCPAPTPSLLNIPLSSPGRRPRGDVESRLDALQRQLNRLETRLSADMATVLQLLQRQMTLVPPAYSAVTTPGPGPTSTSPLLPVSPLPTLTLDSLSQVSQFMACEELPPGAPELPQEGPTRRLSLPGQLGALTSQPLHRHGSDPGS
row,Structure (SMILES),"hERG current change (%, negative = inhibition) at 10uM [%]"
1,Cn1nccc1C(=O)N1CCN(c2ccc(F)cc2)CC1,-1.88
2,CCC1(c2ccc(F)cc2)NC(=O)N(CC(=O)N2CCN(S(=O)(=O)c3ccc(C)cc3)CC2)C1=O (stereo not shown),-18
3,CC1CN(c2oc(COc3ccc(Cl)cc3Cl)nc2C#N)CC(C)O1 (stereo not shown),-13.6
4,O=C(Nc1ccc(Cl)c([N+](=O)[O-])c1)Nc1nc2ccccc2s1,17.6
5,CC(C(=O)N1CCCc2c1c(=O)oc1ccc(O)cc21)N1CCc2ccccc2C1 (stereo not shown),-56.5
6,COc1cc(C(=O)NCc2ccccn2)ccc1OCc1c(C)noc1C,-5.19
7,Cc1cccnc1Nc1nc(-c2ccc(F)cc2)cs1,8.48
8,CCCn1nc(C(=O)NCC2COc3ccccc3O2)c2ccccc2c1=O (stereo not shown),-36.2
9,COc1ccc(S(=O)(=O)Oc2cccc(/C=N/N=C3/NC(=O)C(CC(=O)O)S3)c2)cc1 (stereo not shown),15.3
10,[O-]C1=N/[N+](=C/c2ccccc2)CC1,5.81
11,Cc1ccc(C)n1-c1sc2c(c1C#N)CCC(C)C2 (stereo not shown),11
12,COC(=O)c1ccc([N+](=O)[O-])cc1N1C(=O)C2C3CCC(C3)C2C1=O (stereo not shown),13.3
13,COC(=O)c1cc(C(=O)NCCCN2CCOCC2)cc([N+](=O)[O-])c1.Cl,25.3
14,COc1ccc(N(CC(=O)NCCC2=CCCCC2)S(=O)(=O)c2ccccc2)cc1OC,-6.49
15,CC(C)CN1C(=O)c2ccc(C(=O)Nc3ccncc3)cc2C1=O,-29.4
16,COC(CN1C(=O)C(=O)/C(=C(/O)c2ccccc2)C1c1ccccn1)OC (stereo not shown),9.62
17,CCOc1ccc(C2C(C(C)=O)=C(O)C(=O)N2CCc2c[nH]c3ccccc23)cc1 (stereo not shown),10.3
18,O=C(COC(=O)C12CC3CC(CC(C3)C1)C2)NCCCc1ccccc1,2.32
19,COc1cccc(C(=O)N/N=C2\SCC(=O)N2Cc2ccc3c(c2)OCO3)c1,-26.2
20,COc1ccc(C(=O)OCC(=O)C(C)(C)C)cc1S(=O)(=O)N(C)CCc1cccnc1,-5.5
21,CCN(C(=O)COC(=O)CSc1ccccc1)c1c(N)n(Cc2ccccc2)c(=O)[nH]c1=O,4.11
22,CCCCNC(=O)c1sc2nc(C)cc(COC)c2c1-n1cccc1,-10.7

row,Structure (SMILES),"hERG current change (%, negative = inhibition) at 10uM [%]"
1,COc1ccnc(Oc2ccc(F)cc2)c1C(=O)N/C=N/OCc1ccccc1,-6.62
2,CCC1CCCCN1C(=O)CSc1nnc(-c2cccs2)o1 (stereo not shown),-11.4
3,O=C(O)C1C2C=CC(C2)C1C(=O)NCCCN1CCOCC1 (stereo not shown),13.3
4,COCCCNC(=O)Cn1nnc(-c2ccccc2NC(=O)c2ccc(F)cc2)n1,10.6
5,CCCN(CCC)S(=O)(=O)c1cc(CN2C(=O)c3cccnc3C2=O)ccc1OC,-2.88
6,Cc1cccc(C(=O)N2CCC(n3nnc4cc(F)ccc43)CC2)c1,-34.8
7,CC(C)(C)NC(=S)N1CCC(C(=O)c2ccc(Cl)cc2)CC1,13.9
8,O=C(OCC(=O)N1CCOCC1)c1ccc(Br)cc1,8.72
9,Cc1cc(C)cc(Oc2nc3c(C)cccn3c(=O)c2/C=C(\C#N)C(=O)NC2CCS(=O)(=O)C2)c1 (stereo not shown),-25.1
10,Cc1ccc(SC[C@H](Cc2ccccc2)N2CC[C@@H](NC(=O)OCc3ccccc3)CCC2=O)cc1,-47.2
11,COc1cccc(/C=C/C(=O)NNC(=O)c2ccco2)c1OC,-1.46
12,Cc1ccc(C2NC(c3ccc(C)cc3)C([N+](=O)[O-])C(C)(C)C2[N+](=O)[O-])cc1 (stereo not shown),-4.35
13,O=C(Nc1ccc(C(=O)O)cc1)/C(=C\c1ccccc1)NC(=O)c1ccc(Br)cc1,7.33
14,CCOc1ccc(S(=O)(=O)NCCC(=O)NCC(c2cccs2)N(C)C)cc1 (stereo not shown),-11.6
15,COc1ccc(OC)c2c1CCC2=O,21.1
16,COc1ccc(-c2nc(C(=O)NCC3CCCO3)cc3c2[nH]c2ccccc23)cc1 (stereo not shown),-2.81
17,O=C(CSc1nc2ccccc2nc1N1CCCCC1)N1CCN(c2ccccc2)CC1,1.86
18,COc1cc(/C=C2\CC/C(=C\c3cc(OC)c(OC)c(OC)c3)C2=O)cc(OC)c1OC,21.5
19,CCOc1ccc(CCNC(=O)c2cccc(N3CCCC3=O)c2)cc1OCC,6.89
20,N#C/C(=C/c1ccc(OCc2ccc(C(=O)O)cc2)c(Br)c1)c1cccc(F)c1,23.3
21,CCOC(=O)N1CCN(C(=O)CNC(=O)c2ccc(Br)cc2)CC1,-29.1
